The other results are listed elsewhere or left out. Each Rep nickase domain was tested in vitro on the same pool of single strands (1 h at 37 °C, 3 µM enzyme); the outer parts of the 90-letter strands are left off. Numbers give uncut DNA relative to the enzyme-free pool, as log2; the lower, the more was cut; hits are not called. Shares of all reads are compared, so uncut sequences can rise above 0 when many others are cut.
Key:
Assay in all cases: uncleaved DNA left, log2 of reads against the no-enzyme library (log2 ratio); higher = less cleavage (more negative = more Rep cleavage of the k-mer); sequences stand for … in CTCGTCCG…ACCGGAGA
[1] = tested on: T1, Rep nickase domain of Muscovy duck circovirus
T1 sequence (residues 1-111, tag not shown): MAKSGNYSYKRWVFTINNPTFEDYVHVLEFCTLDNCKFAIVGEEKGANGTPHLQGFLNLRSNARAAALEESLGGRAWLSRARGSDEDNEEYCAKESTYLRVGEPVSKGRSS
Protocol: (§1)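 A pool of 90-nt single-stranded DNAs with seven random bases just before the constant AC of the nick site (name = the seven bases) was cut by 3 µM recombinant His6-SUMO-tagged Rep nickase domain (300 nM DNA, 50 mM HEPES pH 8.0, 50 mM NaCl, 1 mM MnCl2, 1 h, 37 °C, three replicates). Uncut DNA was amplified and sequenced.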

[2] = tested on: T2, Rep nickase domain of banana bunchy top virus
T2 sequence (residues 1-94, tag not shown): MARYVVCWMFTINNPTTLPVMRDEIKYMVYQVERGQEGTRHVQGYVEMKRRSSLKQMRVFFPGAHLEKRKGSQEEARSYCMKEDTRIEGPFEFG
Protocol: as §1

[3] = tested on: T3, Rep nickase domain of cabbage leaf curl virus
T3 sequence (residues 1-116, tag not shown): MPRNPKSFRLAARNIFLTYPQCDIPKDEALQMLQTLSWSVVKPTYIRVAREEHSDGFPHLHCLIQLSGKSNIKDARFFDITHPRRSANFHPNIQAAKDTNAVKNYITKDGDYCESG
Protocol: as §1

[4] = tested on: T4, Rep nickase domain of chickpea chlorotic dwarf virus
T4 sequence (residues 1-124, tag not shown): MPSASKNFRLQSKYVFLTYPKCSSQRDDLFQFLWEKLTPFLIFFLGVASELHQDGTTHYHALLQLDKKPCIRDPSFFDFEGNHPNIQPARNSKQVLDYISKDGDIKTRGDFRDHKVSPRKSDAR
Protocol: as §1

[5] = tested on: T5, Rep nickase domain of faba bean necrotic yellows virus
T5 sequence (residues 1-98, tag not shown): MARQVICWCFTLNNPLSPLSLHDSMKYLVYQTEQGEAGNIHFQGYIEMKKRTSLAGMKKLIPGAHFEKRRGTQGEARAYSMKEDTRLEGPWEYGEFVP
Protocol: as §1

[6] = tested on: T6, Rep nickase domain of maize striate mosaic virus
T6 sequence (residues 1-117, tag not shown): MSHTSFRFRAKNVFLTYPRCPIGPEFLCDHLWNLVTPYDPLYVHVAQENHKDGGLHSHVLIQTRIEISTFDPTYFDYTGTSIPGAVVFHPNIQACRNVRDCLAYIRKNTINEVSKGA
Protocol: as §1

[7] = tested on: T7, Rep nickase domain of porcine circovirus 2
T7 sequence (residues 2-116, tag not shown): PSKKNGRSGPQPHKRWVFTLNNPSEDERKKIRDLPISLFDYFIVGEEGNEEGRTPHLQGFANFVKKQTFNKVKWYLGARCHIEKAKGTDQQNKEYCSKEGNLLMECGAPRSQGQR
Protocol: as §1

[8] = tested on: T8, Rep nickase domain of tomato yellow leaf curl virus
T8 sequence (residues 1-136, tag not shown): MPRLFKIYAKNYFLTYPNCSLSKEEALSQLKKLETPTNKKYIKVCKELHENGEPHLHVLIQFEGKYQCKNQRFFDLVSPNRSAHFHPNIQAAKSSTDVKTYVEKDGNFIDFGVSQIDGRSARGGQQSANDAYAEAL
Protocol: as §1

[9] = tested on: T9, Rep nickase domain of wheat dwarf virus
T9 sequence (residues 1-137, tag not shown): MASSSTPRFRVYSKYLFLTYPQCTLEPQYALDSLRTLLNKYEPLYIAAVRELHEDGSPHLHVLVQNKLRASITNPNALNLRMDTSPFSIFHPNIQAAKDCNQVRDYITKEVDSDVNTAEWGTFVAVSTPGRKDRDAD
Protocol: as §1

Sequence	uncleaved DNA left (log2) [1]	uncleaved DNA left (log2) [2]	uncleaved DNA left (log2) [3]	uncleaved DNA left (log2) [4]	uncleaved DNA left (log2) [5]	uncleaved DNA left (log2) [6]	uncleaved DNA left (log2) [7]	uncleaved DNA left (log2) [8]	uncleaved DNA left (log2) [9]
ACAGGAA	0.0544	-0.0709	0.0631	0.774	-0.0523	0.248	0.137	-0.0418	0.07
ATCTCCT	-0.179	-0.0261	-0.294	-0.651	-0.164	0.946	-0.538	0.0178	-0.234
GGAAGCG	0.104	0.0654	-0.694	0.512	0.124	-0.422	0.169	0.0494	-0.00371
GCGCAAC	-0.131	-0.137	-0.0386	0.0118	-0.154	0.0862	-0.0451	-0.0816	-0.115
TACCGCG	-0.0315	-0.0569	-0.749	0.278	0.0401	-0.491	-0.312	-0.0181	-0.229
TAAGTGC	0.0442	-0.0517	-0.578	-1.34	0.0579	-1.32	0.14	0.0162	-0.18
TGGAGGA	0.146	-0.00329	0.297	0.654	-0.0574	0.244	0.163	0.00197	-0.0613
TTTAATG	0.178	0.071	-0.327	-0.559	-0.0903	-0.942	0.0541	-0.0788	-0.0895
GTGCTGG	0.031	-0.0216	0.0995	0.43	0.0394	0.0846	0.0435	-0.0828	-0.0384
GCTGAAC	0.0848	0.0981	0.131	0.626	0.0457	1.1	0.175	0.0546	0.152
CTCGAGC	0.16	0.0229	0.154	0.496	0.179	-0.523	0.157	0.103	0.00327
GCGCGAC	0.00776	-0.0715	0.0473	0.529	-0.0692	0.225	0.0671	-0.0684	-0.0101
TAGTGGA	-0.00102	0.0175	0.0346	-0.0912	0.0112	-0.204	-2.58	0.0113	-0.0843
CCGATGG	0.111	-0.081	-0.0175	0.184	-0.145	-0.449	0.118	-0.144	0.0442
ATTCCTA	-0.142	-0.0915	-0.159	-1.18	-0.0318	-0.652	-1.3	-0.146	-0.0346
TAACGAG	-0.0346	-0.0151	-0.316	-0.643	-0.0466	-0.893	0.117	-0.0971	-0.0114
TTATACA	-0.11	0.106	0.0729	-1.83	0.0661	0.101	-0.299	0.0627	0.0819
AATTACT	-4.25	-3.9	-3.07	-3.67	-2.3	-1.57	-4.34	-0.0786	-1.17
ACGTCGC	-0.0155	-0.0791	-0.675	-0.679	0.0263	-0.925	0.00341	-0.158	-0.234
AGCACCT	0.0841	0.0641	0.0708	-0.228	1.39e-05	0.972	-0.203	-5.92e-05	0.0808

Sequence	uncleaved DNA left (log2) [1]	uncleaved DNA left (log2) [2]	uncleaved DNA left (log2) [3]	uncleaved DNA left (log2) [4]	uncleaved DNA left (log2) [5]	uncleaved DNA left (log2) [6]	uncleaved DNA left (log2) [7]	uncleaved DNA left (log2) [8]	uncleaved DNA left (log2) [9]
CAGCCAA	-0.18	-0.186	-0.19	-0.63	-0.119	-0.763	-0.204	-0.117	-0.148
CCTTTTT	-2.95	-0.487	-0.169	-2.5	0.0726	-0.731	-2.92	0.0271	-0.093
AAACCCA	-0.0151	0.101	0.0175	-1.47	0.217	0.0372	-0.689	0.0997	0.00361
TCACCCA	-0.0934	0.0589	0.0559	-1.21	-0.016	-0.392	-0.749	-0.048	-0.0629
GGAAGAT	0.0986	0.145	0.883	1.95	0.134	2.18	0.185	0.0677	0.287
TGTTCCA	-0.0135	-0.0368	0.213	0.0137	-0.0551	0.818	-0.0747	0.113	0.0618
CCTCCCC	-0.119	-0.0315	0.00539	-0.317	-0.031	-0.247	-0.576	-0.141	-0.213
CACCGCC	0.0506	-0.0198	-0.106	-0.322	0.0581	-0.757	0.0672	-0.105	-0.0557
CACAAAG	-0.0516	0.0943	-0.778	-0.152	0.0963	-0.969	0.266	0.0868	-0.0144
AATGTCG	0.158	0.103	-0.649	0.422	0.161	-0.642	0.185	0.155	0.0258
AACTGAC	-0.00545	0.0474	-0.202	0.419	0.0525	0.161	0.104	-0.0151	-0.00745
CGGAAGC	0.14	0.0452	0.296	0.399	-0.00848	-0.0851	0.0533	0.119	0.129
CTCCATA	-0.268	0.0217	-0.207	-1.09	-0.0157	-0.581	-0.149	-0.0676	0.0585
AGCGAAC	-0.167	-0.0531	-0.104	0.398	-0.0147	0.97	-0.0342	-0.0691	-0.0159
CAATCTA	0.0707	0.144	-1.81	-2.85	0.0143	-1.07	-0.599	0.189	-0.463
CCATGGC	-0.0932	-0.178	-0.825	-0.7	-0.17	-1.12	0.0252	0.0782	-0.22
GACCGAT	-0.0151	-0.0633	0.182	0.826	-0.0133	1.11	0.0645	-0.0317	0.0932
TCTACCC	-0.275	-0.168	-0.0857	-2.25	-0.186	-0.319	-1.21	-0.106	-0.118
GAGTTAC	-0.0213	-0.0987	0.172	-0.0839	-0.133	1.08	-0.836	-0.0173	-0.0951
CGGTACG	-0.0982	-0.17	-0.729	-0.405	-0.183	-0.846	0.0247	-0.113	-0.283

Sequence	uncleaved DNA left (log2) [1]	uncleaved DNA left (log2) [2]	uncleaved DNA left (log2) [3]	uncleaved DNA left (log2) [4]	uncleaved DNA left (log2) [5]	uncleaved DNA left (log2) [6]	uncleaved DNA left (log2) [7]	uncleaved DNA left (log2) [8]	uncleaved DNA left (log2) [9]
CCCGCCT	-0.264	-0.123	-0.393	-1.81	-0.165	-0.613	-0.305	-0.251	-0.249
TCTAAGC	0.0628	0.0719	-0.0161	-0.238	-0.00919	-0.858	0.155	-0.0398	-0.00177
CCTTTCA	-0.0161	-0.0119	0.243	-0.674	-0.065	-0.266	-0.106	0.185	0.176
TTTTCCT	-2.2	-0.207	-0.0363	-2.23	-0.00343	-0.546	-1.4	-0.0144	-0.197
ATGGTTT	-0.0046	0.011	0.321	1.14	-0.0693	1.54	-0.106	-0.0543	-0.00822
CAACCAT	-0.192	-0.0485	-0.434	-2.55	-0.0194	-0.505	-1.04	0.0824	0.0103
GTTAGAC	0.00345	-0.00633	0.333	1.03	0.0207	1.64	0.0633	-0.0104	0.0131
CGAGTAG	-0.169	-0.024	-0.321	-0.158	-0.124	-0.598	0.0945	-0.0746	-0.088
CAGAAAC	0.124	-0.034	0.0549	-0.266	0.144	-0.625	-0.000894	0.0497	0.0807
TGGTGAA	0.0511	-0.0118	0.329	0.65	0.0735	1.23	0.045	-0.0393	0.0455
CTCCGCT	-0.116	-0.131	-0.202	-0.724	-0.231	-0.68	-0.102	-0.00866	-0.218
GATATAA	0.0422	0.0222	0.199	0.603	0.0379	1.07	0.0879	0.0315	0.156
TTGCTGA	0.116	-0.0616	-0.227	-0.158	-0.00663	-0.649	0.095	-0.0573	-0.0718
GGATCGA	-0.0444	0.0166	0.548	1.23	-0.0521	1.33	0.165	0.0626	0.158
CATATTT	-0.462	-3.52	-0.557	-3.35	-0.0733	-0.9	-2.86	-0.195	-0.194
GTGGCAA	-0.0905	0.124	0.686	1.55	0.00354	2.14	0.201	0.12	0.114
TATAAGT	0.0899	-0.0678	0.0118	-1.28	0.0688	-0.858	-1.16	0.138	0.00958
GCAAACC	-0.0213	-0.0677	0.00929	-0.186	-0.0627	-0.283	-0.324	0.00973	-0.0561
GTGATGT	0.0338	0.153	0.438	1.12	-0.000461	1.74	0.0283	0.0632	0.128
TTGGGCT	0.0468	0.0343	0.252	0.18	-0.0151	0.291	0.147	0.0189	0.015

Source: the supplement of paper PMC7826260
